According to PubChem BioAssay AID504706 (National Center for Advancing Translational Sciences (NCATS), 2011):
“And” between values parts separate entries of the source, which are not always exact repeats. Identical values can stand only once. The campaign covered roughly 320,000 compounds. About 200 (0.062%) were called active. The shares of active, inactive and inconclusive entries below differ from those in the screen. The call rests on the fitted dose curve; in most records, active means well fitted activation curve with a large enough effect; inconclusive means small, poorly fitted or top-dose-only effect; inactive means no such curve, though single readings can be large or run the other way. A potency beside an inconclusive call is a rough fit, not a confirmed value.
Potency means the concentration at half of the fitted maximal effect; tags describe the fitted curve by direction and shape.

Experiment: qHTS assay for re-activators of p53 using a Luc reporter; further: nearly all actives have a fitted effect of over 45% in size
Conditions: H1299 p53-A138V BP100-luciferase reporter, luminescence, 24 h; series mostly up to 92.2 µM
Summary of the method: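 p53-null H1299 cells stably carrying temperature-sensitive p53-A138V and a BP100-luciferase reporter were pinned with compounds (4-point, 1:5 series) and held 24 hrs at 37 deg C. Luminescence was read 10 min after detection reagent.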
In the case of `CCOC(=O)c1c(C)[nH]c(C(=O)OCCOc2ccc(Cl)cc2)c1C`, the Potency is reported as inconclusive: 12.6 µM [activator, full curve, poor fit]. In the case of `CCn1c(SCC#N)nc2c(c1=O)C1(CCCC1)Cc1ccccc1-2`, the Potency is reported as “inactive”. With `Cc1ccc(CN=c2c([N+](=O)[O-])nn(-c3ccc4c(c3)OCCO4)n2O)cc1` the Potency was inconclusive: 3.98 µM [activator, full curve, poor fit]. In the case of `Cc1cc(Nc2ccccc2)nc(-c2ccccc2O)n1`, the Potency is reported as inconclusive: 50.1 µM [activator, partial curve, poor fit]. In the case of `Nc1ccc2c(c1)C(=O)c1ccccc1C2=O`, the Potency is reported as inconclusive: 63.1 µM [activator, single point]. In the case of `Cc1ccc(C)c(NC(=O)CCC(=O)N/N=C/c2cc([N+](=O)[O-])ccc2O)c1`, the Potency is reported as “inactive”. For `COc1ccc(C(=O)Cc2nnc(C)s2)cc1`, the Potency was inconclusive: 50.1 µM [activator, partial curve, poor fit]. In the case of `CCOC(=O)CC1C(=O)NCCN1c1nc2c(C)cccn2c(=O)c1/C=C1\SC(=S)N(CC(C)C)C1=O` (stereo unspecified), the Potency is reported as “inactive”. With `CN(C(=O)CSc1ccccc1C(=O)O)C1CCCCC1` the Potency was “inactive”. For `COc1ccc(CNC(=O)c2ccc(Cl)c(S(=O)(=O)N3CCOCC3)c2)cc1OC`, the Potency was “inactive”. With `NS(=O)(=O)c1ccc(NC(=O)c2ccc(-c3ccccc3)cc2)cc1` the Potency was “inactive”. In the case of `CCC(C(=O)OCC(=O)N1CCN(S(=O)(=O)c2ccc(C)cc2C)CC1)c1ccccc1` (stereo unspecified), the Potency is reported as “inactive”. In the case of `O=c1cc(C(F)(F)F)[nH]c2ccc(C(F)(F)F)cc12`, the Potency is reported as “inactive”. In the case of `CCOC(=O)/C(C#N)=C/c1c[nH]c2ccccc12`, the Potency is reported as inconclusive: 10 µM [activator, full curve, poor fit] and inconclusive: 11.2 µM [activator, single point]. With `COc1ccccc1CNC(=O)c1ccccc1NS(C)(=O)=O` the Potency was “inactive”. In the case of `COc1ccc2c(c1OC)C(=O)N(c1ccc(F)cc1)C2`, the Potency is reported as inconclusive: 14.1 µM [activator, partial curve, poor fit]. In the case of `CCOC(=O)c1cccc(NC(=O)c2cnc3ccccc3n2)c1`, the Potency is reported as inconclusive: 12.6 µM [activator, partial curve, poor fit]. In the case of `O=C(N/N=C/c1cccc(O)c1)c1ccc(COc2ccc3c(c2)CCC3)o1`, the Potency is reported as inconclusive: 31.6 µM [activator, partial curve, poor fit]. In the case of `O=c1c2ccccc2cnn1-c1ccc(Br)cc1`, the Potency is reported as inconclusive: 39.8 µM [activator, partial curve, poor fit]. For `CS(=O)(=O)Nc1ccc(-c2ccc(/C=C3\SC(N)=NC3=O)o2)cc1`, the Potency was “inactive”. With `COc1ccc(Cl)cc1NC(=O)C/C(C)=N/NC(=O)COc1ccc(C)cc1` the Potency was “inactive”. In the case of `Cc1csc(NC(=O)C2CCCC2)n1`, the Potency is reported as inconclusive: 6.31 µM [activator, partial curve, poor fit]. In the case of `C=CCCCCCCCCc1nc(=S)[nH][nH]1`, the Potency is reported as “inactive”. With `O=C(CCCOc1ccccc1)N1CCN(c2ccccc2)CC1` the Potency was inconclusive: 12.6 µM [activator, partial curve, poor fit]. With `NC1(C#Cc2ccc3c(=O)c4ccccc4sc3c2)CCCCC1` the Potency was inconclusive: 11.2 µM [activator, partial curve, poor fit]. With `CC(C)C(NS(=O)(=O)c1ccccc1)C(=O)N1CCCCCC1` (stereo unspecified) the Potency was inconclusive: 56.2 µM [activator, partial curve, poor fit]. With `N#CC1(C#N)C2=C(CCCC2)NC(c2ccccc2)C1(C#N)C#N` (stereo unspecified) the Potency was inconclusive: 79.4 µM [activator, single point]. For `O=S(=O)(c1ccc(Cl)s1)N1CCCc2cccc(O)c21`, the Potency was inconclusive: 50.1 µM [activator, partial curve, poor fit]. In the case of `CCC(=O)Nc1cccc(C(=O)OCC(=O)c2ccccc2Cl)c1`, the Potency is reported as inconclusive: 25.1 µM [activator, full curve, poor fit]. For `Cc1ccc(/C=N/NC(=O)CNC(=O)c2cccs2)cc1`, the Potency was “inactive”. In the case of `NC(=O)c1cccc2c3c([nH]c12)CCCC3`, the Potency is reported as inconclusive: 79.4 µM [activator, single point]. With `O=C(c1ccc([N+](=O)[O-])cc1)N1CCN(C(=O)C2CCCCC2)CC1` the Potency was inconclusive: 79.4 µM [activator, single point]. In the case of `Cc1ccc(C=Nc2ccccc2C(N)=O)o1`, the Potency is reported as inconclusive: 56.2 µM [activator, partial curve, poor fit]. With `COc1ccc2nc(NC(=O)CSc3nnc(-c4ccoc4C)n3C)sc2c1` the Potency was inconclusive: 44.7 µM [activator, partial curve, poor fit]. With `Cc1cccc(CC(C)NC(=O)c2oc3c(F)cccc3c2C)n1` (stereo unspecified) the Potency was inconclusive: 79.4 µM [activator, single point]. With `COc1ccc(C(=O)Oc2ccc(C(C)=O)cc2)c(OC)c1` the Potency was inconclusive: 11.2 µM [activator, full curve]. In the case of `O=C(NC1=NCCS1)c1sc2cc(F)ccc2c1Cl`, the Potency is reported as inconclusive: 3.98 µM [activator, full curve, poor fit]. In the case of `Cc1ccc(S(=O)(=O)N2CCN(C(=O)COC(=O)C3(C)CC3(Cl)Cl)CC2)c(C)c1` (stereo unspecified), the Potency is reported as inconclusive: 11.2 µM [activator, single point]. With `O=C(N=C1c2ccccc2CN1c1cccc(Cl)c1)c1cccnc1` the Potency was inconclusive: 7.94 µM [activator, partial curve, poor fit]. With `O=C(COC(=O)c1ccc(-c2ccc([N+](=O)[O-])cc2)o1)NC(=O)NC12CC3CC(CC(C3)C1)C2` the Potency was inconclusive: 70.8 µM [activator, single point]. With `O=C1CC[C@H](O)CCN1CCSc1ccc(Br)cc1` the Potency was inconclusive: 35.5 µM [activator, partial curve, poor fit]. For `CN(C)C(CNC(=O)c1ccc(OCc2cn3ccccc3n2)cc1)c1ccco1` (stereo unspecified), the Potency was inconclusive: 10 µM [activator, partial curve, poor fit]. For `Cc1ccc(N=Cc2nc(-c3ccco3)oc2O)cc1`, the Potency was inconclusive: 39.8 µM [activator, partial curve, poor fit]. For `CC1=NN(c2ccccc2)C(=O)/C1=C/c1c(O)n(-c2ccc(F)cc2)[nH]c1=O`, the Potency was inconclusive: 14.1 µM [activator, full curve, poor fit]. In the case of `CCOC(=O)C1=C(O)/C(=C/c2ccc(-c3ccccc3C(=O)O)o2)SC1=Nc1ccc(OC)cc1`, the Potency is reported as “inactive”. For `Cc1ccc(/C=N\Nc2cn[nH]c(=O)c2Cl)cc1`, the Potency was “inactive”. With `COc1cccc(/C=N/NC(=O)CN(C)S(=O)(=O)c2ccccc2)c1OC` the Potency was inconclusive: 8.91 µM [activator, partial curve, poor fit]. In the case of `O=C(/C=C\c1ccc(-c2ccccc2)o1)c1ccccc1`, the Potency is reported as inconclusive: 17.8 µM [activator, partial curve, poor fit]. In the case of `COc1cc(C(=O)ON=C2C(C)=CC(=O)C=C2C)cc(OC)c1OC`, the Potency is reported as inconclusive: 79.4 µM [activator, single point]. With `Cc1ccc(C(=O)OC(C)C(=O)Nc2ccc3c(c2)OCO3)c(O)c1` (stereo unspecified) the Potency was inconclusive: 35.5 µM [activator, partial curve, poor fit]. In the case of `CCN(CC)CCNCC1C(=O)O[C@@H]2C[C@@]3(C)CCC[C@H](C)C3=C[C@H]12` (stereo partly specified), the Potency is reported as “inactive”. In the case of `Cc1nnc(SCC(=O)N2c3ccccc3Sc3ccccc32)n1N`, the Potency is reported as inconclusive: 70.8 µM [activator, single point]. With `COc1ccc(CC(=O)Nc2ccc3c(C)cc(=O)oc3c2)cc1OC` the Potency was “inactive”. For `COc1cc(/C=N/NC(=O)c2ccc3c(c2)OCCO3)c(Br)c(Br)c1O`, the Potency was inconclusive: 50.1 µM [activator, partial curve, poor fit]. With `c1ccc(COc2ccc(OCCCN3CCCC3)cc2)cc1` the Potency was inconclusive: 2.51 µM [activator, full curve, poor fit]. In the case of `CN(C)S(=O)(=O)c1ccc(C(=O)OCC(=O)c2csc(N3CCCCC3)n2)cc1`, the Potency is reported as inconclusive: 8.91 µM [activator, full curve, poor fit]. For `O=C1C=C(c2ccc(C(=O)O)cc2)C[C@@H](c2ccc(F)cc2)C1`, the Potency was inconclusive: 28.2 µM [activator, single point]. For `CCOC(=O)N1CC=C2C(C#N)=C(N)C(C#N)(C#N)[C@H](c3ccc(OCC)c(OCC)c3)[C@H]2C1`, the Potency was “inactive”. With `CCOC(=O)c1cc2c(=O)n3cccc(C)c3nc2n(CCCOC)c1=NC(=O)c1cccnc1` the Potency was “inactive”. For `Cc1ccc(Oc2ccc(NC(=O)CCC(=O)OCC(=O)c3cccs3)cc2)cc1C`, the Potency was inconclusive: 50.1 µM [activator, single point]. With `CCCCCCn1c(SCCN2CCOCC2)nc2c1c(=O)[nH]c(=O)n2C` the Potency was inconclusive: 50.1 µM [activator, single point]. With `CCCN1CCN(S(=O)(=O)c2ccc3c(c2)OCCO3)CC1` the Potency was inconclusive: 35.5 µM [activator, single point]. With `Cc1ccn(CCC(=O)Nc2ccc3c(c2)OCO3)n1` the Potency was inconclusive: 39.8 µM [activator, partial curve, poor fit]. With `O=C(NCc1ccccc1)C(=O)NCC1OCCN1S(=O)(=O)c1ccc([N+](=O)[O-])cc1` (stereo unspecified) the Potency was “inactive”. For `O=C(COc1ccc(F)cc1)N1CCC(c2ccccc2)C1` (stereo unspecified), the Potency was inconclusive: 50.1 µM [activator, partial curve, poor fit]. With `CCOC(=O)C(Cc1ccccc1)(Cc1ccccc1)C(C)=O` the Potency was “inactive”.
